# Read-outs that look alike come from different tables or passages of the source.
# B1: xmPD1-hIL15Rasu-hIL-15 D61N (other)
# chain 1: [about 120 residues with changes left out here]
# chain 2: HHHHHHHHGGGGSGSGGEVQLVESGGGLVKPGGSLELSCAASGFTFSSYWMSWVRQAPEKGLEWVAAISPSGGSTYYADSVKGRFTISRDNAKNTLFLQMTSLRSEDTAMYYCAKESWGAYYDLWGQGTTVTVSSASTKGPSVFPLAPCSRSTSESTAALGCLVKDYFPEPVTVSWNSGALTSGVHTFPAVLQSSGLYSLSSVVTVPSSNFGTQTYTCNVDHKPSNTKVDKTVERKCRVRCPRCPAPPVAGPSVFLFPPKPKDTLMISRTPEVTCVVVAVSHEDPEVQFNWYVDGVEVHNAKTKPREEQFNSTFRVVSVLTVVHQDWLNGKEYKCKVSNKGLPSSIEKTISKTKGQPREPQVYTLPPSREEMTKNQVSLTCLVKGFYPSDIAVEWESNGQPENNYKTTPPMLDSDGSFFLYSRLTVDKSRWQQGNVFSCSVMHEALHNHYTQKSLSLSPGK
# chain 3: DIVMTQSPSSLSVSAGDKVTMSCRASQGISSWLAWYQQKPWQPPKLLIYKASTLESGVPDRFTGSGSGTDFTLTISSVQAEDLAVYYCQQSYSTPWTFGGGTKLEIKGTVAAPSVFIFPPSDEQLKSGTASVVCLLNNFYPREAKVQWKVDNALQSGNSQESVTEQDSKDSTYSLSSTLTLSKADYEKHKVYACEVTHQGLSSPVTKSFNRGEC
# B2: xmPD1-IL15 V49R/Y26K (other)
# heavy 1: B1 chain 2
# heavy 2: EVQLVESGGGLVKPGGSLELSCAASGFTFSSYWMSWVRQAPEKGLEWVAAISPSGGSTYYADSVKGRFTISRDNAKNTLFLQMTSLRSEDTAMYYCAKESWGAYYDLWGQGTTVTVSSASTKGPSVFPLAPCSRSTSESTAALGCLVKDYFPEPVTVSWNSGALTSGVHTFPAVLQSSGLYSLSSVVTVPSSNFGTQTYTCNVDHKPSNTKVDKTVERKCEVECPECPAPPVAGPSVFLFPPKPKDTLMISRTPEVTCVVVAVSHEDPEVQFNWYVDGVEVHNAKTKPREEQFNSTFRVVSVLTVVHQDWLNGKEYKCKVSNKGLPSSIEKTISKTKGQPREPQVYTLPPSREEMTKNQVSLTCEVKGFYPSDIAVEWESNGQPENNYKTTPPMLDSDGSFFLYSKLTVDKSRWQQGNVFSCSVMHEALHNHYTQKSLSLSPGSGGGGGTSATATPGA[about 120 residues with changes left out here]
# light: B1 chain 3
# B3: xmPD1-IL15 V49K E46G (other)
# heavy 1: B1 chain 2
# heavy 2: EVQLVESGGGLVKPGGSLELSCAASGFTFSSYWMSWVRQAPEKGLEWVAAISPSGGSTYYADSVKGRFTISRDNAKNTLFLQMTSLRSEDTAMYYCAKESWGAYYDLWGQGTTVTVSSASTKGPSVFPLAPCSRSTSESTAALGCLVKDYFPEPVTVSWNSGALTSGVHTFPAVLQSSGLYSLSSVVTVPSSNFGTQTYTCNVDHKPSNTKVDKTVERKCEVECPECPAPPVAGPSVFLFPPKPKDTLMISRTPEVTCVVVAVSHEDPEVQFNWYVDGVEVHNAKTKPREEQFNSTFRVVSVLTVVHQDWLNGKEYKCKVSNKGLPSSIEKTISKTKGQPREPQVYTLPPSREEMTKNQVSLTCEVKGFYPSDIAVEWESNGQPENNYKTTPPMLDSDGSFFLYSKLTVDKSRWQQGNVFSCSVMHEALHNHYTQKSLSLSPGSGGGGGTSATATPGA[about 120 residues with changes left out here]
# light: B1 chain 3
# B4: xmPD1-IL15 V49K Y26K (other)
# heavy 1: B1 chain 2
# heavy 2: EVQLVESGGGLVKPGGSLELSCAASGFTFSSYWMSWVRQAPEKGLEWVAAISPSGGSTYYADSVKGRFTISRDNAKNTLFLQMTSLRSEDTAMYYCAKESWGAYYDLWGQGTTVTVSSASTKGPSVFPLAPCSRSTSESTAALGCLVKDYFPEPVTVSWNSGALTSGVHTFPAVLQSSGLYSLSSVVTVPSSNFGTQTYTCNVDHKPSNTKVDKTVERKCEVECPECPAPPVAGPSVFLFPPKPKDTLMISRTPEVTCVVVAVSHEDPEVQFNWYVDGVEVHNAKTKPREEQFNSTFRVVSVLTVVHQDWLNGKEYKCKVSNKGLPSSIEKTISKTKGQPREPQVYTLPPSREEMTKNQVSLTCEVKGFYPSDIAVEWESNGQPENNYKTTPPMLDSDGSFFLYSKLTVDKSRWQQGNVFSCSVMHEALHNHYTQKSLSLSPGSGGGGGTSATATPGA[about 120 residues with changes left out here]
# light: B1 chain 3
# B5: hIL-15 E46G (ligand)
# chain: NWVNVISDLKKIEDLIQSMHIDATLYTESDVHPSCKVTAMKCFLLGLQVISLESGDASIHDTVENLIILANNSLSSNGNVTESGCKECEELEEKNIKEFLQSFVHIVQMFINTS
# notes: not shown: C-terminal linker-8xHis-Avi tag
# B6: hIL-15 V49K (ligand)
# chain: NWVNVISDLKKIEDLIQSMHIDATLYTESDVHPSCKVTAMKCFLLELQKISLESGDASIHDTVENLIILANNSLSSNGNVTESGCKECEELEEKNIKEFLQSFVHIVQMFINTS
# notes: as for B5
# B7: hIL-15 Y26H (ligand)
# chain: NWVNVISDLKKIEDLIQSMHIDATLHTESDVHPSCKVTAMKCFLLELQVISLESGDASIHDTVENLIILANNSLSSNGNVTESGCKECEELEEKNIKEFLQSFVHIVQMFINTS
# notes: as for B5
# B8: hIL-15 Y26K (ligand)
# chain: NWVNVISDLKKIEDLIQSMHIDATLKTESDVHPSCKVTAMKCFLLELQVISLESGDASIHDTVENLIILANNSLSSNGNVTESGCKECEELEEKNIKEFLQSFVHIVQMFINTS
# notes: as for B5
# B9: hIL-15 Y26R (ligand)
# chain: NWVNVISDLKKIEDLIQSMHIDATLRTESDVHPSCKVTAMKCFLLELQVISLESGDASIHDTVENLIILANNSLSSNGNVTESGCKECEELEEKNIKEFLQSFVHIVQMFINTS
# notes: as for B5
# Legend:
# [1] = target: T1, IL-15 signaling receptor on 32D[pRF770+pRF791] cells (human CD122 plus mouse CD132) (human; mouse, UniProt P14784 27-551; P34902 23-369); assay: cell-based or functional assay
# T1 sequence (looked up) 1: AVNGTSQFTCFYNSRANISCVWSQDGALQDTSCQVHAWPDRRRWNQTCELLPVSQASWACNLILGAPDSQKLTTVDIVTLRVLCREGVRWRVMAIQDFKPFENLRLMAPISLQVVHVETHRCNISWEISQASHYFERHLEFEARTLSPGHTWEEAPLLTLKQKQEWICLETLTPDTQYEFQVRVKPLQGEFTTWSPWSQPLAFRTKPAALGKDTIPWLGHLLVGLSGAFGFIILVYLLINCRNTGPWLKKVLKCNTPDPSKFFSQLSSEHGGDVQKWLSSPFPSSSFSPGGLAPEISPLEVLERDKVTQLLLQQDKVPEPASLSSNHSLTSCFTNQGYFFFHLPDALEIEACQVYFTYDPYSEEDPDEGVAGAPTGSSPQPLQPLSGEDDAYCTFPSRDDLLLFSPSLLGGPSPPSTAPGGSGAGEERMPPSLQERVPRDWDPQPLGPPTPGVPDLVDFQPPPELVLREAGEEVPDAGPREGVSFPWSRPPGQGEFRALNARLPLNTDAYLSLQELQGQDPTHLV
# T1 sequence (looked up) 2: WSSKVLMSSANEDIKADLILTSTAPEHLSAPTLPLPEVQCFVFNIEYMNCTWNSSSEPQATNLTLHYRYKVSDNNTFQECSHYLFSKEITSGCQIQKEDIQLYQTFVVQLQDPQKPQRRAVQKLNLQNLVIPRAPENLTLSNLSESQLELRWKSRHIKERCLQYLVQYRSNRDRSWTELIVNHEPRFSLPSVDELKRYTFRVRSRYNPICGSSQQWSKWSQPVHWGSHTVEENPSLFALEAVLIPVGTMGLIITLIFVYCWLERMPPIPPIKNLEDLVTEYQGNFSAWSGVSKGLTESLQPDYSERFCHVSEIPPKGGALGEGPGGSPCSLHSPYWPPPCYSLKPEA
# [2] = target: T2, mouse PD-1 on doxycycline-induced 32D[pRF770+pRF791] cells (mouse, UniProt Q02242 25-288); assay: cell-based or functional assay
# T2 sequence (looked up): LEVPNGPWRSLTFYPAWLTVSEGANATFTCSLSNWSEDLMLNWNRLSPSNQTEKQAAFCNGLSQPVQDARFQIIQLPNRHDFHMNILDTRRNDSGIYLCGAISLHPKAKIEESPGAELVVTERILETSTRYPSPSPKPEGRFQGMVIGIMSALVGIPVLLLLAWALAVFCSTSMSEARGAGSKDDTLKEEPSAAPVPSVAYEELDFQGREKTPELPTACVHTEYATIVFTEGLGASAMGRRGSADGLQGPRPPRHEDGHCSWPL
# [3] = target: T1, IL-15 signaling receptor on …; assay: cell-based or functional assay; remark: listed apart in the source
# [4] = target: T2, mouse PD-1 on doxycycline-induced …; assay: cell-based or functional assay; remark: listed apart in the source
# [5] = target: T1, IL-15 signaling receptor on …; assay: cell-based or functional assay; remark: listed apart in the source
# [6] = target: T2, mouse PD-1 on doxycycline-induced …; assay: cell-based or functional assay; remark: listed apart in the source
# human IL-2Rβ = target: T3, human IL-2Rβ (human, UniProt P14784 27-240, limits assumed); assay: SPR, steady state
# T3 construct: also called hIL-2Rβ; IL-2 receptor beta
# T3 sequence (looked up): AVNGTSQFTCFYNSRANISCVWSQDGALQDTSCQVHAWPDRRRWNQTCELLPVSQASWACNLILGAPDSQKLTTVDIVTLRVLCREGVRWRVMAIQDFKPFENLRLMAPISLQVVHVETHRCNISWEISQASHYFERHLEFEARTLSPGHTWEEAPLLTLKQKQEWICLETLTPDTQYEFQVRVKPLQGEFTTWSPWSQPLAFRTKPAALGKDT
# human IL-15Rα = target: T4, human IL-15Rα (human, UniProt Q13261 31-205, limits assumed); assay: SPR, steady state
# T4 construct: also called hIL-15Rα; IL-15 receptor alpha
# Chain of human IL-15Rα (Q13261 31-205 limits assumed): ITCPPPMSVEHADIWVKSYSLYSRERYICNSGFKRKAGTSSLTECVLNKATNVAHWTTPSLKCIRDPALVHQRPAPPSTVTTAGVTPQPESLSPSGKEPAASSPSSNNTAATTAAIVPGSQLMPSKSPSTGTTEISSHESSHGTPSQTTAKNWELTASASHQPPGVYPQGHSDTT
binder,measurement,setting,value
B1,pSTAT5 EC50 on PD-1(low) 32D reporter cells,[1],6.91 nM
same,Fold change = EC50 (PD-1(low))/EC50 (PD-1+),[2],18 fold
same,pSTAT5 EC50 on PD-1+ 32D reporter cells,[2],0.38 nM
B2,pSTAT5 EC50 on PD-1(low) 32D reporter cells,[3],0.854 nM
same,Fold change = EC50 (PD-1(low))/EC50 (PD-1+),[4],207 fold
same,pSTAT5 EC50 on PD-1+ 32D reporter cells,[4],4.12 pM
B3,pSTAT5 EC50 on PD-1(low) 32D reporter cells,[5],3.98 nM
same,Fold change = EC50 (PD-1(low))/EC50 (PD-1+),[6],503 fold
same,pSTAT5 EC50 on PD-1+ 32D reporter cells,[6],7.9 pM
B4,pSTAT5 EC50 on PD-1(low) 32D reporter cells,[5],3.98 nM
same,Fold change = EC50 (PD-1(low))/EC50 (PD-1+),[6],227 fold
same,pSTAT5 EC50 on PD-1+ 32D reporter cells,[6],17.5 pM
B5,Kd,human IL-2Rβ,0.141 µM
same,Kd,human IL-15Rα,0.267 µM
B6,Kd,human IL-2Rβ,0.0866 µM
same,Kd,human IL-15Rα,0.241 µM
B7,Kd,human IL-2Rβ,0.087 µM
same,Kd,human IL-15Rα,0.0109 µM
B8,Kd,human IL-2Rβ,0.0757 µM
same,Kd,human IL-15Rα,0.146 µM
B9,Kd,human IL-2Rβ,0.0579 µM
same,Kd,human IL-15Rα,0.0968 µM

# Source: patent US20210324028A1 (Pfizer, published 2021)
